Among the data in the antibiotic and cytotoxicity screens of Wong et al. (2023) are cytotoxicity call values, retold here.

Each structure is given as a SMILES string. The list shows a part of the results.

For the test, the system named is HepG2. The test can be described thus: cytotoxicity call (relative viability < 0.9). The note with it: 10 µM.
With `C[C@@H]1CN([C@@H](C)CO)C(=O)c2cc(NC(=O)Nc3ccc4c(c3)OCO4)ccc2O[C@@H]1CN(C)Cc1ccc(C(F)(F)F)cc1`, the cytotoxicity call is “inactive”. The value for `C[C@H]1CCCCO[C@H](CN(C)CC2CC2)[C@@H](C)CN([C@@H](C)CO)C(=O)c2cc(NC(=O)Nc3ccc4c(c3)OCO4)ccc2O1` was “inactive”; that for `CN(C)CC(=O)N1CC2(C1)[C@@H](c1ccccc1)[C@H](CO)N2S(C)(=O)=O` was “inactive”; that for `C[C@@H]1CN([C@H](C)CO)C(=O)c2cc(NC(=O)Cc3cn(C)c4ccccc34)ccc2O[C@H]1CN(C)S(=O)(=O)c1cn(C)cn1` was “inactive”.

`C[C@H]1CN([C@@H](C)CO)C(=O)c2cc(NC(=O)CCCCCC(=O)Nc3ccccc3N)ccc2O[C@@H]1CN(C)C(=O)Nc1ccc(C(F)(F)F)cc1`: the cytotoxicity call was “inactive”. On to `C[C@@H]1CN([C@@H](C)CO)C(=O)CCCn2cc(nn2)CO[C@@H]1CN(C)C(=O)Nc1ccc(N2CCCCC2)cc1`, for which the cytotoxicity call is “inactive”. The result for `CC1=C(C(=O)O)N2C(=O)[C@@H](NC(=O)[C@@H](N)c3ccc(O)cc3)[C@H]2SC1` reads “inactive”; that for `C=CCOC(=O)[C@H]1[C@@H]2C(=O)O[C@@H](c3ccccc3)[C@@H](c3ccccc3)N2[C@@H](c2ccc(OCCOC(=O)[C@@H]3C[C@@H]4C(=O)N[C@@H](CCCC[N+](C)(C)C)C(=O)N4[C@@H]3c3cccc(OCCO)c3)cc2)[C@]12C(=O)Nc1ccc(I)cc12`, “inactive”; that for `O=C(O)[C@@H]1CCCC[C@@H]1C(=O)N1CCc2ccccc2[C@H]1CN1C(=O)c2ccccc2C1=O.O=C(O)[C@H]1CCCC[C@@H]1C(=O)N1CCc2ccccc2[C@H]1CN1C(=O)c2ccccc2C1=O`, “inactive”. The result for `COc1cccc(C#Cc2ccc3c(c2)O[C@H](CN(C)C(=O)c2ccccn2)[C@@H](C)CN([C@@H](C)CO)S3(=O)=O)c1` reads “inactive”. For `N[C@H]1CCN(O)C1=O`, the cytotoxicity call is “inactive”. The result for `C[C@@H]1CN([C@H](C)CO)C(=O)Cc2cc(NC(=O)Cc3cn(C)c4ccccc34)ccc2O[C@H]1CN(C)S(=O)(=O)c1cn(C)cn1` reads “inactive”. The result for `CCC(=O)N[C@@H]1CC[C@H](CC(=O)OC)O[C@@H]1CO` reads “inactive”; that for `C[C@H]1CN([C@@H](C)CO)C(=O)Cc2cc(NC(=O)C3CC3)ccc2O[C@H]1CN(C)C(=O)Nc1ccc2c(c1)OCO2`, “inactive”. As for `C[C@H]1CN([C@@H](C)CO)C(=O)CCCn2cc(nn2)CO[C@H]1CN(C)C(=O)C1CC1`, the cytotoxicity call is “inactive”. The result for `C[C@@H]1CN([C@H](C)CO)C(=O)c2cccc(NC(=O)c3nc4ccccc4s3)c2O[C@@H]1CN(C)CC1CCCCC1` reads “inactive”; that for `Cc1noc(C)c1S(=O)(=O)N(C)C[C@H]1Oc2ccc(NC(=O)CCN3CCOCC3)cc2C(=O)N([C@H](C)CO)C[C@H]1C`, “inactive”; that for `CN(C)CCCNC(=O)C[C@@H]1CC[C@@H]2[C@H](COC[C@@H](O)CN2S(=O)(=O)c2ccc(Cl)cc2)O1`, “inactive”. The result for `O=C(O)CN1Cc2ccccc2C1=O` reads “inactive”.

Consider `C[C@@H]1CN([C@H](C)CO)C(=O)c2cccc(NC(=O)c3ccc(-c4nccs4)cc3)c2O[C@@H]1CN(C)C(=O)NC1CCCCC1`, for which the cytotoxicity call is “inactive”. The value for `C[C@@H]1CN([C@@H](C)CO)C(=O)c2cccc(NC(=O)c3cnccn3)c2O[C@@H]1CN(C)Cc1ccc2c(c1)OCO2` was “inactive”; that for `CCc1nc2ccc(C(=O)NCCCN3CCCC3=O)cn2c1N(CC)C(=O)NCCc1ccccc1` was “inactive”.

In the case of `COc1cccc(NC(=O)N2C[C@H](O)COC[C@@H]3O[C@H](CC(=O)NCc4ccccc4F)CC[C@H]32)c1`, the cytotoxicity call is “inactive”.

Consider `CN(C)C(=O)C[C@@H]1C=C[C@@H](NC(=O)C2CC2)[C@@H](CO)O1`, for which the cytotoxicity call was “inactive”. The result for `C[C@@H]1CCCCO[C@H](CN(C)C(=O)Nc2ccc(F)cc2)[C@H](C)CN([C@@H](C)CO)C(=O)c2cc(NC(=O)Cc3ccccc3)ccc2O1` reads “inactive”; that for `COc1ccc(S(=O)(=O)N(C)C[C@@H]2OCCCC[C@@H](C)Oc3ccc(NC(=O)NC4CCCCC4)cc3C(=O)N([C@H](C)CO)C[C@H]2C)cc1`, “active”. The result for `COc1ccc(NC(=O)N[C@H]2CC[C@@H](CCNC(=O)CN3CCOCC3)O[C@H]2CO)cc1` reads “inactive”; that for `O=c1c2ccccc2oc2ccccc12`, “inactive”. The value for `Nc1ccn2ccnc2c1` was “inactive”; that for `C[C@H](CO)N1C[C@H](C)[C@H](CN(C)S(=O)(=O)c2ccc(Cl)cc2)OCCCC[C@H](C)Oc2ccc(NC(=O)Nc3ccc(C(F)(F)F)cc3)cc2C1=O` was “active”. For the molecule `COc1ccc(C#Cc2cnc3c(c2)C(=O)N([C@H](C)CO)C[C@H](C)[C@H](CN(C)C(=O)CN(C)C)O3)cc1`, the cytotoxicity call is “inactive”. The value for `C[C@@H]1CN([C@H](C)CO)C(=O)c2cccc(NC(=O)c3ccc(-c4nccs4)cc3)c2O[C@H]1CN(C)S(C)(=O)=O` was “inactive”; that for `COc1ccc2c3c([nH]c2c1)[C@H](CO)N(C[C@]13CN(CC2CCOCC2)C1)C(=O)Nc1c(noc1C)C` was “inactive”; that for `C[C@H]1CN([C@@H](C)CO)C(=O)CCCn2nncc2CO[C@H]1CN(C)C(=O)Nc1ccc(N2CCN(C)CC2)cc1` was “inactive”. The value for `Cc1noc(C)c1NC(=O)N(C)C[C@@H]1Oc2c(NC(=O)Nc3cccc4ccccc34)cccc2C(=O)N([C@H](C)CO)C[C@H]1C` was “inactive”; that for `C[C@@H]1CCCCO[C@H](CN(C)C(=O)C2CCCCC2)[C@H](C)CN([C@@H](C)CO)C(=O)c2cc(NC(=O)CCC(F)(F)F)ccc2O1` was “inactive”. The result for `C[C@@H]1CN([C@H](C)CO)C(=O)c2cccc(NC(=O)Nc3ccccc3)c2O[C@H]1CN(C)Cc1ccc(-c2ccccc2)cc1` reads “inactive”; that for `C[C@@H]1CCCCO[C@@H](CN(C)Cc2ccc(C(F)(F)F)cc2)[C@@H](C)CN([C@@H](C)CO)C(=O)c2cc(NS(C)(=O)=O)ccc2O1`, “inactive”; that for `C[C@H]1CN([C@@H](C)CO)C(=O)c2cccc(NC(=O)c3ccncc3)c2O[C@H]1CN(C)S(=O)(=O)c1ccc(F)cc1`, “inactive”. `C[C@@H]1CN([C@@H](C)CO)C(=O)Cc2cc(NS(=O)(=O)c3ccccc3)ccc2O[C@@H]1CN(C)Cc1ccc2c(c1)OCO2`: the cytotoxicity call was “inactive”.
